This is an account of results in PubChem BioAssay (NCATS).

Some of the results follow. Further columns of the screen follow, without active or inactive calls. Compounds called inactive in the main read-out are mostly missing here. The note in brackets gives the kind of curve behind each potency; many fits are weak.
Tags describe the fitted curve by direction and shape.

In this experiment the target is Nicotinamide N-methyltransferase (Homo sapiens) (UniProt P40261). Briefly: Confirmatory Screen for Target Class Profiling of Small Molecule Inhibitors of Methyltransferases (AID 1745852).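 Further: inhibitor potency for blocking SAH production.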 As to conditions: MTase-Glo luminescence, SAH detection, recombinant enzyme; measured here: NNMT inhibition potency.
Chain of UniProt P40261 (P40261 whole entry, looked up): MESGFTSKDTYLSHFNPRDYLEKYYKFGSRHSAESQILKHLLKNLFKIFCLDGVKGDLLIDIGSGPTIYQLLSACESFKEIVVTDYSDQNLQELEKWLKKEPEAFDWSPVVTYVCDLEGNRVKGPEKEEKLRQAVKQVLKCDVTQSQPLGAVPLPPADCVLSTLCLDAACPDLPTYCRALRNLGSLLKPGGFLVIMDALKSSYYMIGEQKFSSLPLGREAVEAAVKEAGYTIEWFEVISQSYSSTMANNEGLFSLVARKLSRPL
As a reminder, the IC50 is the concentration that gives 50% inhibition. On to `CC(C)CCn1c(=O)c2ccccc2n2c(CCC(=O)N3CCN(c4ccc(F)cc4)CC3)nnc12`, for which the IC50 is 19.2 µM [falling, partial curve].
With `CCCCCCCOc1cc2c(cc1/C(C)=C/c1ccc(C(=O)O)cc1)C(C)(C)CCS2(=O)=O`, the IC50 was 24.1 µM [falling, partial curve].
For `Cn1ncc2c(N3CCN(S(N)(=O)=O)CC3)nc(C3CCCC3)nc21`, the IC50 was 27.1 µM [falling, partial curve].
Turning to `COc1cc2c(cc1OC)CN(C(=O)/C=C/c1c(-c3ccccc3)n(C)c3ncccc13)CC2`, the IC50 is 12.1 µM [falling, partial curve].
Turning to `CC(C)CCn1c(=O)c2ccccc2n2c(CCC(=O)N3CCN(Cc4ccccc4)CC3)nnc12`, the IC50 was 17.1 µM [falling, partial curve].
With `COc1ccc(CN2C(=O)c3cc4sccc4n3CC2(C)C(=O)NC2CCC(C)CC2)cc1OC` (centres undefined), the IC50 was 3.41 µM [falling, full curve].
With `Cc1sc2c(c1C)C(c1ccc(Cl)cc1)=N[C@H](CC(=O)NCCCCNC(=O)COc1cccc3c1C(=O)N([C@H]1CCC(=O)NC1=O)C3=O)c1nnc(C)n1-2`, the IC50 was 19.2 µM [falling, partial curve].
The same measure for `N#Cc1cnc2cnc(NCc3cccnc3)cc2c1Nc1ccc(F)c(Cl)c1`: 21.5 µM [falling, partial curve].
The figure for `O=C(CCc1nnc2n(CCc3ccccc3)c(=O)c3ccccc3n12)N1CCN(c2ccccc2)CC1` is 9.61 µM [falling, partial curve]; for `C[C@H]1CN(C(=O)c2nn(C)c3ccccc23)C[C@@H]1c1nc(-c2cccnc2)no1` it is 1.53 µM [falling, full curve].
With `CCN(CC)CCN(Cc1ccc(-c2ccc(C(F)(F)F)cc2)cc1)C(=O)Cn1c(SCc2ccc(F)cc2)nc(=O)c2c1CCC2`, the IC50 is 15.2 µM [falling, partial curve].
`Cc1ccc(N(C)S(=O)(=O)c2ccc3c(c2)n(C)c(=O)n3C)cc1`: the IC50 is 21.5 µM [falling, partial curve].
As to `Cc1cc(C)c(NS(=O)(=O)c2ccc3c(c2)n(C)c(=O)n3C)c(C)c1`, the IC50 is 21.5 µM [falling, partial curve].
In the case of `CCN(CC)C(=O)c1ccc(Nc2nc(OCC3CCCCC3)c3[nH]cnc3n2)cc1`, the concentration for half-maximal inhibition (IC50) was 19.2 µM [falling, partial curve].
`COc1ccc(CCN2C(=O)c3cc4occc4n3CC2(C)C(=O)NC2CCCCC2)cc1OC` (centres undefined): the IC50 is 21.5 µM [falling, partial curve].
For the molecule `COc1ccccc1N1CCN(c2ncnc3n[nH]c(Br)c23)CC1`, the IC50 is 21.5 µM [falling, partial curve].
With `c1ccc(CN2CCc3c(sc4ncnc(N5CCOCC5)c34)C2)cc1`, the half-inhibitory concentration (IC50) was 27.1 µM [falling, partial curve].
The figure for `COc1ccc(CCN2C(=O)c3ccc(-c4ccco4)n3CC2(C)C(=O)NC2CCCC2)cc1OC` (centres undefined) is 19.2 µM [falling, partial curve]; for `CCCCN1C(=O)c2cc(C(=O)NCc3ccc(OC)cc3OC)nn2CC1(C)C(=O)NC1CCCC1` (centres undefined) it is 21.5 µM [falling, partial curve].
Regarding `Nc1nc(NC2CC2)cc(-c2cccc(Cl)c2Cl)n1`, the IC50 is 21.5 µM [falling, partial curve].
For the molecule `CC(C)OCCCn1c(=O)c2ccccc2n2c(CCC(=O)N3CCN(c4cccc(Cl)c4)CC3)nnc12`, the IC50 was 21.5 µM [falling, partial curve].
The figure for `CC(C)Cn1c(=O)c2ccccc2n2c(CCC(=O)NCCc3ccc(Cl)cc3)nnc12` is 24.1 µM [falling, partial curve].
Turning to `CC(C)Cn1c(=O)c2ccccc2n2c(CCC(=O)N3CCN(c4ccccc4F)CC3)nnc12`, the IC50 was 19.2 µM [falling, partial curve].
The figure for `Cc1c(OCc2cccc(-c3ccc(C(=O)O)cc3)c2)cc2c(c1C)C(=O)C(C1CCCC1)C2` (centres undefined) is 27.1 µM [falling, partial curve]; for `CC(F)(F)CN1CCOc2c(nn(-c3ccccc3Cl)c2-c2ccc(Cl)cc2)C1=O` it is 24.1 µM [falling, partial curve].
In the case of `Clc1ccc(Cn2c(Cc3ccccc3)nc3ccccc32)cc1`, the IC50 is 19.2 µM [falling, partial curve].
The same measure for `C/C=C/c1ccc2c(c1)[C@@H](C)[C@H](c1ccc(O)cc1)O2`: 19.2 µM [falling, partial curve]; for `O=C(c1ccc(C(F)(F)F)cc1)N1CCCC(C(=O)N2CCC(c3nc4ccncc4[nH]3)CC2)C1` (centres undefined): 24.1 µM [falling, partial curve, poor fit]; for `CC(C)CCn1c(=O)c2ccccc2n2c(CCC(=O)N3CCN(c4ccccc4F)CC3)nnc12`: 19.2 µM [falling, partial curve].
On to `CC(C)Cn1c(=O)c2ccccc2n2c(CCC(=O)Nc3ccc(F)c(F)c3)nnc12`, for which the IC50 was 15.2 µM [falling, partial curve].
As to `COc1cccc(N2C(=O)NC(=NC3CCCCC3)C23CCCN(CC2CCCCC2)C3)c1` (centres undefined), the IC50 is 27.1 µM [falling, partial curve].
With `COc1ccc(CCN2C(=O)c3cc4occc4n3CC2(C)C(=O)NC2CCCCCC2)cc1OC` (centres undefined), the IC50 was 17.1 µM [falling, partial curve].
On to `CCc1c(-c2ccccc2)c(-c2ccccc2)nn1-c1ccccc1-c1cccc(OCC(=O)O)c1`, for which the IC50 is 21.5 µM [falling, partial curve].
The same measure for `Cc1ccc(C)c(-c2cc(C(F)(F)F)nn2-c2ccc(S(N)(=O)=O)cc2)c1`: 21.5 µM [falling, partial curve].
The same measure for `CC(C)Cn1c(=O)c2ccccc2n2c(CCC(=O)N3CCC(Cc4ccccc4)CC3)nnc12`: 19.2 µM [falling, partial curve].
In the case of `Cn1cc2c3c(cccc31)CN(C(=O)c1ccccc1F)CC2`, the IC50 is 17.1 µM [falling, partial curve].
Take `Cc1cnc(C2CC2)n1C1CCN(S(=O)(=O)c2ccc3c(c2)OCCO3)CC1`: the concentration for half-maximal inhibition (IC50) was 24.1 µM [falling, single point].
As for `CN(c1ccccc1CNc1nc(Nc2ccc3c(c2)CC(=O)N3)ncc1C(F)(F)F)S(C)(=O)=O`, the IC50 is 21.5 µM [falling, partial curve].
The same measure for `CC(C)n1nc(-c2ccc(NC(=O)Nc3cccc(C(F)(F)F)c3)cc2)c2c(N)ncnc21`: 15.2 µM [falling, partial curve].
